# Assay results published in PubChem BioAssay AID485360 (National Center for Advancing Translational Sciences (NCATS), 2010).
# Out of some 230,000 compounds screened, about 1,500 (0.65%) were called active. The shares of active, inactive and inconclusive entries below differ from those in the screen. The call rests on the fitted dose curve; in most records, active means well fitted inhibition curve with a large enough effect; inconclusive means small, poorly fitted or top-dose-only effect; inactive means no such curve, though single readings can be large or run the other way. Potencies of inconclusive entries are doubtful fits and often do not repeat.
# Biological target: Lethal(3)malignant brain tumor-like protein 1 (Homo sapiens) (UniProt Q9Y468)
# Sequence of UniProt Q9Y468 (Q9Y468 whole entry, looked up): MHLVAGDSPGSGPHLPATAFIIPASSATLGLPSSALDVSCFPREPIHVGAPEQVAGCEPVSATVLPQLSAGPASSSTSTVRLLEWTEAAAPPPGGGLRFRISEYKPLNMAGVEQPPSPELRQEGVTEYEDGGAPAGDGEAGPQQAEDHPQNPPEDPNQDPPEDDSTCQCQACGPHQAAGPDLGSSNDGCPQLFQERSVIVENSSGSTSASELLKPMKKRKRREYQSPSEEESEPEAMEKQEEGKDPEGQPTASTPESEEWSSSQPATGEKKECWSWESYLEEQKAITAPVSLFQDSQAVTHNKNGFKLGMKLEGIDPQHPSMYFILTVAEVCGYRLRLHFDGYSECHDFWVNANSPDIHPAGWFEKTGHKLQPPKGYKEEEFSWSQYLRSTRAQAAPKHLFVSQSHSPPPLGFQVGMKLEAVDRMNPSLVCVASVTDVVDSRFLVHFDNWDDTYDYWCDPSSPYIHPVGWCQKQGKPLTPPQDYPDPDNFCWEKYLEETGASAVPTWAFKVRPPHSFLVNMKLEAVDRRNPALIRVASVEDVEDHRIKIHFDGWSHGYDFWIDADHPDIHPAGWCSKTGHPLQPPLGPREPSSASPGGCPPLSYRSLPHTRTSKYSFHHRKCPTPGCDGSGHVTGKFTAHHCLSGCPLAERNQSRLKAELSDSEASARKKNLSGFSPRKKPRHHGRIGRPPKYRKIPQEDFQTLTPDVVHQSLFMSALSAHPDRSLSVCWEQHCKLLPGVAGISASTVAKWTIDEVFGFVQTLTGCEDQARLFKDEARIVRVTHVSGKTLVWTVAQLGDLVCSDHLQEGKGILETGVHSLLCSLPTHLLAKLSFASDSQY
# Experiment: qHTS Assay for the Inhibitors of L3MBTL1; further: nearly all actives have a fitted effect of over 60% in size
# Details: AlphaScreen L3MBTL1–H3K9me1 peptide binding; activity, negative = inhibition: at 57.1 µM (top of the series)
# Method in brief: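 Read-out is AlphaScreen signal from streptavidin donor and nickel chelate acceptor beads (10 ug/mL final each) bridging L3MBTL1 (50 nM) and biotinylated K9-monomethylated H3(1-15) peptide (75 nM), after 30 min compound exposure at room temperature.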
# On the % scale 0 is the no-effect control and ±100 the full control effect; potency means the concentration at half of the fitted maximal effect; tags describe the fitted curve by direction and shape.
Structure (SMILES),"activity, negative = inhibition",Potency
CCc1ccccc1-n1c(SCC(=O)N2CCCC2)nnc1-c1ccccn1,inactive: -26.8%,
Cc1cc(NC(=O)CSc2nc3ccsc3c(=O)n2Cc2ccccn2)n[nH]1,inactive: -4.57%,
CCCCn1c(=O)[nH]c(=O)c2c1nc(CN1C(=O)c3ccccc3S1(=O)=O)n2CCC,,"inconclusive: 0.708 µM [inhibitor, single point]"
Cc1ccccc1CSc1ccc2nnc(-c3ccccn3)n2n1,,"inconclusive: 4.47 µM [inhibitor, partial curve]"
COc1ccc(-c2csc(NC(=O)c3c(C)noc3C)n2)cc1F,,"inconclusive: 7.08 µM [inhibitor, single point]"
CC(C)(C)c1ccc(C(=O)NN=C2CCCC2)cc1,inactive: -5.55%,
Cc1[nH]c(=O)[nH]c1C(=O)CCCCC(=O)OCC(=O)Nc1ccccn1,,active: 0.708 µM
O=[N+]([O-])c1nn(-c2ccccc2)n(O)c1=NCCc1ccccc1,,"inconclusive: 39.8 µM [inhibitor, single point]"
COc1ccc(S(=O)(=O)NC2CC2)cc1Br,inactive: 3.94%,
c1ccc(-c2cccc(-c3ccccn3)n2)nc1,,"inconclusive: 28.2 µM [inhibitor, single point]"
O=C(OCCc1ccccc1)c1cc(O)c(O)c(O)c1,,"inconclusive: 31.6 µM [inhibitor, single point]"
CC1=NN(c2ccc(Br)cc2)C(=O)/C1=C/c1ccc(-c2ccccc2C(=O)O)o1,inactive: -15.8%,
COc1ccc(C(=O)Nc2nc(-c3ccccn3)cs2)cc1S(=O)(=O)N1CCOCC1,,"inconclusive: 28.2 µM [inhibitor, single point]"
COc1cccc(NC(=O)C2=COCCO2)c1,,"inconclusive: 0.708 µM [inhibitor, single point]"
COCCn1c(SCC(=O)N2CCc3ccccc3C2)nc2cc(Cl)ccc2c1=O,,"inconclusive: 6.31 µM [inhibitor, single point]"
Oc1cccc(/C=N/Nc2ncnc3c2ncn3Cc2ccccc2)c1,,"inconclusive: 0.708 µM [inhibitor, single point]"
Cc1ccc(-n2ncc3c(=O)[nH]c(SCC(=O)N4CCOCC4)nc32)cc1,inactive: 3.37%,
Cn1cccc1/C=N/NC(=O)c1cc(-c2cccs2)nc2ccccc12,,"inconclusive: 20 µM [inhibitor, partial curve]"
O=[N+]([O-])c1ccc(N/N=C2\CC3CC=CC23)c([N+](=O)[O-])c1 (stereo not drawn),,"inconclusive: 3.98 µM [inhibitor, partial curve]"
CCOC(=O)c1c(C)n(C)c2ccc(OC)c(NC(=O)CN3CCN(Cc4ccccc4)CC3)c12,inactive: -2.47%,
CC(C)(C)OC(=O)N1CCC[C@H]1C(=O)OCC(=O)Nc1cc(S(C)(=O)=O)ccc1Cl,inactive: -6.53%,
CCOc1cccc(OCCOCCNC(C)(C)C)c1,inactive: 5.66%,
COc1ccc(C)cc1-n1nnnc1SCC(=O)NC(=O)NCc1ccco1,,"inconclusive: 28.2 µM [inhibitor, single point]"
COCCn1ccc2c(OCC(=O)Nc3cccc(NC(C)=O)c3)cccc2c1=O,inactive: -9.73%,

Structure (SMILES),"activity, negative = inhibition",Potency
O=C(COC(=O)c1ccc(NS(=O)(=O)c2cccs2)cc1O)NCc1ccccc1,inactive: 38%,
Cc1ccc(NC(=O)c2cn(CCC#N)nc2-c2cccs2)c([N+](=O)[O-])c1,,"inconclusive: 31.6 µM [inhibitor, single point]"
Cc1nn(-c2ccccc2)c(N)c1N=Nc1ccc(Cl)cc1,,"inconclusive: 0.708 µM [inhibitor, partial curve, poor fit]"
CN(C)CCCSc1nc(-c2ccccc2)nc2c1CCC2,,"inconclusive: 22.4 µM [inhibitor, partial curve]"
O=C(c1ncc[nH]1)c1ccco1,inactive: 2.98%,
Cc1cc(Nc2ccccc2)c2c([N+](=O)[O-])cc(C)c(C)c2n1,,"inconclusive: 22.4 µM [inhibitor, partial curve]"
CCOC(=O)c1c2n(c3ccc(O)cc13)CCC2,inactive: -13.1%,
N#CC1=C(N)N2C(=C(C#N)C1c1ccc(Br)cc1)Nc1ccccc12 (stereo not drawn),inactive: 13.7%,
Cc1c(Cl)cccc1Nc1ccccc1C(=O)O,inactive: 11.8%,
N#C/C(=C\c1ccco1)C(=O)Nc1ccc(S(N)(=O)=O)cc1,,"inconclusive: 0.891 µM [inhibitor, single point]"
O=C1Nc2ccccc2/C1=N\N=C\c1ccc(O)c(O)c1,,"inconclusive: 7.08 µM [inhibitor, partial curve]"
Cc1ccccc1Nc1scc(-c2ccc(Cl)cc2)[n+]1-c1ccccc1C,,"inconclusive: 15.8 µM [inhibitor, partial curve]"
CCCCN(C)C(=O)C1CCC(=O)N(c2cc(OC)c(OC)c(OC)c2)C1c1ccc(OC)cc1 (stereo not drawn),,"inconclusive: 6.31 µM [inhibitor, single point]"
CC1(C)Oc2nc3ccccc3n2/C1=C\C#N,,"inconclusive: 5.01 µM [inhibitor, full curve, poor fit]"
CSCCC(NC(=O)c1ccco1)C(=O)N1CCCC(C(F)(F)F)C1 (stereo not drawn),inactive: -3.02%,
Oc1ccc2ccccc2c1/C=N/Nc1ccccc1,,"inconclusive: 35.5 µM [inhibitor, single point]"
CC(=O)Nc1cccc(C(=O)N/N=C/c2ccccc2F)c1,,"inconclusive: 8.91 µM [inhibitor, single point]"
CC(C)Nc1nnc(SCC(=O)Nc2ccc3c(c2)C(=O)c2ccccc2C3=O)s1,,"inconclusive: 39.8 µM [inhibitor, single point]"
COc1cccc(NC(=S)N(CCCN2CCCC2)Cc2ccco2)c1,,"inconclusive: 10 µM [inhibitor, partial curve]"
Cc1cc(C)c2c(N)c(C(=O)NN)sc2n1,inactive: 0.505%,
CC(NC(=O)C(NS(=O)(=O)c1cccs1)C(C)C)c1ccc(S(N)(=O)=O)cc1 (stereo not drawn),inactive: 1.32%,
O=[N+]([O-])c1cccc(Cl)c1NCCNS(=O)(=O)c1ccc(Cl)cc1,,"inconclusive: 7.08 µM [inhibitor, single point]"
COc1cccc(C2CC(c3ccccc3Cl)n3ncnc3N2)c1 (stereo not drawn),,"inconclusive: 2.51 µM [inhibitor, single point]"
O=C(O)CCC(NC(=S)Nc1ccccc1)C(=O)O (stereo not drawn),inactive: -4.35%,
